Assay results from patent publication US20210147548A1 (INSTITUTE OF BIOPHYSICS CHINESE ACADEMY OF SCIENCES, published 2021).

Biological target: T1, PD-L1 on IFNAR1-/- A20 cells (UniProt Q9EP73)
T1 construct: whole, on cells; Endogenous PD-L1 of A20 cells
Test: flow cytometry on IFNAR1-/- A20 cells expressing PD-L1, detected with PE-anti-human IgG Fc; '-' means no binding

T1 sequence (Q9EP73 19-290 limits assumed): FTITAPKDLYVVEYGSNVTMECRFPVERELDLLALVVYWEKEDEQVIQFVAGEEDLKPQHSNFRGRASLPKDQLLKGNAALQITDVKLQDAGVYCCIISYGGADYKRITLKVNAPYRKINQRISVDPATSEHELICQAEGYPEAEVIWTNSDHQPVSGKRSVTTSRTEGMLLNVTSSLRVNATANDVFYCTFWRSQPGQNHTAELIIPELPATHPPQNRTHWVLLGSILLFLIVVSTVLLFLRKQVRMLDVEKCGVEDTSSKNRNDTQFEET

B1: IFN-Fc (Fc fusion)
chain: CDLPHTYNLGNKRALTVLEEMRRLPPLSCLKDRKDFGFPLEKVDNQQIQKAQAILVLRDLTQQILNLFTSKDLSATWNATLLDSFCNDLHQQLNDLKACVMQEPPLTQEDSLLAVRTYFHRITVYLRKKKHSLCAWEVIRAEVWRALSSSTNLLARLSEEKESGGGGSGGGGSGGGGSGGGGRT[skipping human IgG1 Fc with changes and a few adjoining residues]
notes: also called IFNα-Fc; mIFNα4-Fc
B1: no binding.
